US11420968B2 (priority 2018, dated 2022)
Where two headings read alike, the source gives them in different places.

Columns and labels:
RS4;11 cells = test: cells; conditions: Homo sapiens
Molt-4 cells = test: cells; conditions: Homo sapiens, MOLT-4, read-out: Cellular activity (IC50, nM) Molt-4
[1] = RS4-11, 48 h, read-out: Cellular activity (IC50, nM) RS4;11
[2] = RS4-11, 48 h, read-out: Cellular activity (IC50, nM) RS4, 11

Compound: O=C(NS(=O)(=O)c1ccc(NCC2C3COCC23)c([N+](=O)[O-])c1)c1ccc(N2CCC3(CC2)CC(N2CCC[C@H]2c2ccccc2C2CC2)C3)cc1Oc1cnc2[nH]ccc2c1 (stereo partly drawn) [Example F119, 2-((1H-pyrrolo[2,3-b]pyridin-5-yl)oxy)-N-((4-(((3-oxabicyclo[3.1.0]hexan-6-yl)methyl)amino)-3-nitrophenyl)sulfonyl)-4-(2-((S)-2-(2-cyclopropylphenyl)pyrrolidin-1-yl)-7-azaspiro[3.5]nonan-7-yl)benzamide]
- IC50 (RS4;11 cells; [1]): 2.1 nM
- IC50 (Molt-4 cells): 2800 nM

Compound: CC(C)c1ccccc1C1CCCN1C1CC=C(c2ccc(C(=O)NS(=O)(=O)c3ccc(NCC4CCOCC4)c([N+](=O)[O-])c3)c(Oc3cnc4[nH]ccc4c3)c2)CC1 (stereo not shown) [Example C18, 3-((1H-pyrrolo[2,3-b]pyridin-5-yl)oxy)-4′-(2-(2-isopropylphenyl)pyrrolidin-1-yl)-N-((3-nitro-4-(((tetrahydro-2H-pyran-4-yl)methyl)amino)phenyl)sulfonyl)-2′,3′,4′,5′-tetrahydro-[1,1′-biphenyl]-4-carboxamide]
- IC50 (RS4;11 cells; [2]): 121 nM
- IC50 (Molt-4 cells): 9820 nM

Compound: CN1CCC(CNc2ccc(S(=O)(=O)NC(=O)c3ccc(-c4ccc(N5CCCC5c5ccccc5Cl)cc4)cc3Oc3cnc4[nH]ccc4c3)cc2[N+](=O)[O-])CC1 (stereo not shown) [Example G2, 3-((1H-pyrrolo[2,3-b]pyridin-5-yl)oxy)-4′-(2-(2-chlorophenyl)pyrrolidin-1-yl)-N-((4-(((1-methylpiperidin-4-yl)methyl)amino)-3-nitrophenyl)sulfonyl)-[1,1′-biphenyl]-4-carboxamide]
- IC50 (RS4;11 cells; [2]): 208 nM
- IC50 (Molt-4 cells): 8170 nM

Compound: O=C(NS(=O)(=O)c1ccc(NCC2CCOCC2)c([N+](=O)[O-])c1)c1ccc(-c2ccc(CN3CCCC3c3ccccc3Cl)cc2)cc1Oc1cnc2[nH]ccc2c1 (stereo not shown) [Example B2, 3-((1H-pyrrolo[2,3-b]pyridin-5-yl)oxy)-4′-((2-(2-chlorophenyl)pyrrolidin-1-yl)methyl)-N-((3-nitro-4-(((tetrahydro-2H-pyran-4-yl)methyl)amino)phenyl)sulfonyl)-[1,1′-biphenyl]-4-carboxamide]
- IC50 (RS4;11 cells; [2]): 339 nM
- IC50 (RS4;11 cells; RS4-11, read-out: Cellular activity (IC50, nM)): 339 nM
- IC50 (Molt-4 cells): 5520 nM

Compound: CC(C)c1ccccc1[C@@H]1CCCN1c1ccc(-c2ccc(C(=O)NS(=O)(=O)c3ccc(NCC4(F)CCOCC4)c([N+](=O)[O-])c3)c(Oc3cnc4[nH]ccc4c3)c2)cc1 [Example G85-S, (S)-3-((1H-pyrrolo[2,3-b]pyridin-5-yl)oxy)-N-((4-(((4-fluorotetrahydro-2H-pyran-4-yl)methyl)amino)-3-nitrophenyl)sulfonyl)-4′-(2-(2-isopropylphenyl)pyrrolidin-1-yl)-[1,1′-biphenyl]-4-carboxamide]
- IC50 (RS4;11 cells; [2]): 103 nM
- IC50 (Molt-4 cells): 4080 nM

Compound: O=C(NS(=O)(=O)c1ccc(OCC2(F)CCOCC2)c([N+](=O)[O-])c1)c1ccc(C2=CCC(N3CCCC3c3ccccc3C3CC3)CC2)cc1Oc1cnc2[nH]ccc2c1 (stereo not shown) [Example G1C, 3-((1H-pyrrolo[2,3-b]pyridin-5-yl)oxy)-4′-(2-(2-cyclopropylphenyl)pyrrolidin-1-yl)-N-((4-((4-fluorotetrahydro-2H-pyran-4-yl)methoxy)-3-nitrophenyl)sulfonyl)-2′,3′,4′,5′-tetrahydro-[1,1′-biphenyl]-4-carboxamide]
- IC50 (RS4;11 cells; [2]): 37 nM
- IC50 (Molt-4 cells): 5160 nM

Compound: O=C(NS(=O)(=O)c1ccc(NCC2CCOCC2)c([N+](=O)[O-])c1)c1ccc(C2=CCC(N3CCCC3c3ccc(C4CC4)cc3)CC2)cc1Oc1cnc2[nH]ccc2c1 (stereo not shown) [Example C192, 3-((1H-pyrrolo[2,3-b]pyridin-5-yl)oxy)-4′-(2-(4-cyclopropylphenyl)pyrrolidin-1-yl)-N-((3-nitro-4-(((tetrahydro-2H-pyran-4-yl)methyl)amino)phenyl)sulfonyl)-2′,3′,4′,5′-tetrahydro-[1,1′-biphenyl]-4-carboxamide]
- IC50 (RS4;11 cells; [2]): 57 nM
- IC50 (Molt-4 cells): 6830 nM

Compound: O=C(NS(=O)(=O)c1ccc(NCC2CCOCC2)c([N+](=O)[O-])c1)c1ccc(C2=CCC(N3CCCC3c3ccc(Cl)cc3C3CC3)CC2)cc1Oc1cnc2[nH]ccc2c1 (stereo not shown) [Example C143, 3-((1H-pyrrolo[2,3-b]pyridin-5-yl)oxy)-4′-(2-(4-chloro-2-cyclopropylphenyl)pyrrolidin-1-yl)-N-((3-nitro-4-(((tetrahydro-2H-pyran-4-yl)methyl)amino)phenyl)sulfonyl)-2′,3′,4′,5′-tetrahydro-[1,1′-biphenyl]-4-carboxamide]
- IC50 (RS4;11 cells; [2]): 569 nM
- IC50 (Molt-4 cells): 4990 nM

Compound: CC1(C)Oc2cccc(C3CCCN3C3CC=C(c4ccc(C(=O)NS(=O)(=O)c5ccc(NCC6CCOCC6)c([N+](=O)[O-])c5)c(Oc5cnc6[nH]ccc6c5)c4)CC3)c2O1 (stereo not shown) [Example C161, 3-((1H-pyrrolo[2,3-b]pyridin-5-yl)oxy)-4′-(2-(2,2-dimethylbenzo[d][1,3]dioxol-4-yl)pyrrolidin-1-yl)-N-((3-nitro-4-(((tetrahydro-2H-pyran-4-yl)methyl)amino)phenyl)sulfonyl)-2′,3′,4′,5′-tetrahydro-[1,1′-biphenyl]-4-carboxamide]
- IC50 (RS4;11 cells; [2]): 400 nM
- IC50 (Molt-4 cells): > 10000 nM

Compound: CN1CCC2(CC1)CN(c1ccccc1[C@H]1CCCN1c1ccc(-c3ccc(C(=O)NS(=O)(=O)c4ccc(NCC5CCOCC5)c([N+](=O)[O-])c4)c(Oc4cnc5[nH]ccc5c4)c3)cc1)C2 [Example A136, (R)-3-((1H-pyrrolo[2,3-b]pyridin-5-yl)oxy)-4′-(2-(2-(7-methyl-2,7-diazaspiro[3,5]nonan-2-yl)phenyl)pyrrolidin-1-yl)-N-((3-nitro-4-(((tetrahydro-2H-pyran-4-yl)methyl)amino)phenyl)sulfonyl)-[1,1′-biphenyl]-4-carboxamide]
- IC50 (RS4;11 cells; [1]): 3.8 nM
- IC50 (Molt-4 cells): 1410 nM

Compound: C=C(C)c1ccccc1C1CCCN1C1CCC(c2ccc(C(=O)NS(=O)(=O)c3ccc(NCC4CCOCC4)c([N+](=O)[O-])c3)c(Oc3cnc4[nH]ccc4c3)c2)CC1 (stereo not drawn) [Example D6, trans- or cis-2-(1H-pyrrolo[2,3-b]pyridin-5-yl)oxy)-N-((3-nitro-4-(((tetrahydro-2H-pyran-4-yl)methyl)amino)phenyl)sulfonyl)-4-(4(2-(2-(prop-1-en-2-yl)phenyl)pyrrolidin-1-yl)cyclohexyl)benzamide]
- IC50 (RS4;11 cells; [2]): 178 nM
- IC50 (Molt-4 cells): 5050 nM

Compound: O=C(NS(=O)(=O)c1ccc(NC[C@H]2CCN(C3COC3)C2)c([N+](=O)[O-])c1)c1ccc(C2=CCC(N3CCCC3c3ccccc3C3CC3)CC2)cc1Oc1cnc2[nH]ccc2c1 (stereo partly drawn) [Example G37, 3-((1H-pyrrolo[2,3-b]pyridin-5-yl)oxy)-4′-(2-(2-cyclopropylphenyl)pyrrolidin-1-yl)-N-((3-nitro-4-((((R)-1-(oxetan-3-yl)pyrrolidin-3-yl)methyl)amino)phenyl)sulfonyl)-2′,3′,4′,5′-tetrahydro-[1,1′-biphenyl]-4-carboxamide]
- IC50 (RS4;11 cells; [2]): 103 nM
- IC50 (Molt-4 cells): 6630 nM

Compound: O=C(NS(=O)(=O)c1ccc(NCC2CCOCC2)c([N+](=O)[O-])c1)c1ccc(-c2ccc(N3CCCC3c3ccccc3N3CCC3)cc2)cc1Oc1cnc2[nH]ccc2c1 (stereo not shown) [Example A66, 3-((1H-pyrrolo[2,3-b]pyridin-5-yl)oxy)-4′-(2-(2-(azetidin-1-yl)phenyl)pyrrolidin-1-yl)-N-((3-nitro-4-(((tetrahydro-2H-pyran-4-yl)methyl)amino)phenyl)sulfonyl)-[1,1′-biphenyl]-4-carboxamide]
- IC50 (RS4;11 cells; [1]): 289 nM
- IC50 (Molt-4 cells): > 10000 nM

Compound: CN1CCC(c2ccccc2C2CCCN2c2ccc(-c3ccc(C(=O)NS(=O)(=O)c4ccc(NCC5CCOCC5)c([N+](=O)[O-])c4)c(Oc4cnc5[nH]ccc5c4)c3)cc2)C1 (stereo not shown) [Example A126, 3-((1H-pyrrolo[2,3-b]pyridin-5-yl)oxy)-4′-(2-(2-(1-methylpyrrolidin-3-yl)phenyl)pyrrolidin-1-yl)-N-((3-nitro-4-(((tetrahydro-2H-pyran-4-yl)methyl)amino)phenyl)sulfonyl)-[1,1′-biphenyl]-4-carboxamide]
- IC50 (RS4;11 cells; [1]): 26 nM
- IC50 (Molt-4 cells): > 10000 nM

Compound: C[C@]1(O)CC[C@H](CNc2ccc(S(=O)(=O)NC(=O)c3ccc(N4CC5(CCC(N6CCC[C@H]6c6ccccc6C6CC6)C5)C4)cc3Oc3cnc4[nH]ccc4c3)cc2[N+](=O)[O-])CC1 (stereo partly drawn) [Example F123, 2-((1H-pyrrolo[2,3-b]pyridin-5-yl)oxy)-4-(6-((S)-2-(2-cyclopropylphenyl)pyrrolidin-1-yl)-2-azaspiro[3.4]octan-2-yl)-N-((4-((((1r,4r)-4-hydroxy-4-methylcyclohexyl)methyl)amino)-3-nitrophenyl)sulfonyl)benzamide]
- IC50 (RS4;11 cells; [1]): 28.8 nM
- IC50 (Molt-4 cells): > 10000 nM

Compound: O=C(NS(=O)(=O)c1ccc(OCC2CCC3(CC2)COC3)c([N+](=O)[O-])c1)c1ccc(-c2ccc(N3CCC[C@@H]3c3ccccc3C3CC3)cc2)cc1Oc1cnc2[nH]ccc2c1 [Example G99, (R)-3-((1H-pyrrolo[2,3-b]pyridin-5-yl)oxy)-N-((4-((2-oxaspiro[3.5]nonan-7-yl)methoxy)-3-nitrophenyl)sulfonyl)-4′-(2-(2-cyclopropylphenyl)pyrrolidin-1-yl)-[1,1′-biphenyl]-4-carboxamide]
- IC50 (RS4;11 cells; [1]): 36 nM
- IC50 (Molt-4 cells): 6900 nM

Compound: O=C(NS(=O)(=O)c1ccc(NCC2CCOCC2)c([N+](=O)[O-])c1)c1ccc(C2=CCC(N3CCC3c3ccccc3)CC2)cc1Oc1cnc2[nH]ccc2c1 (stereo not shown) [Example C99, 3-((1H-pyrrolo[2,3-b]pyridin-5-yl)oxy)-N-((3-nitro-4-(((tetrahydro-2H-pyran-4-yl)methyl)amino)phenyl)sulfonyl)-4′-(2-phenylazetidin-1-yl)-2′,3′,4′,5′-tetrahydro-[1,1′-biphenyl]-4-carboxamide]
- IC50 (RS4;11 cells; [2]): 645 nM
- IC50 (Molt-4 cells): > 10000 nM

Compound: O=C(NS(=O)(=O)c1ccc(NCC2CCOCC2)c([N+](=O)[O-])c1)c1ccc(-c2ccc(N3CCCC3c3ccccc3)c(F)c2)cc1Oc1cnc2[nH]ccc2c1 (stereo not shown) [Example A33, 3-((1H-pyrrolo[2,3-h]pyridin-5-yl)oxy)-3′-fluoro-N-((3-nitro-4-(((tetrahydro-2H-pyran-4-yl)methyl)amino)phenyl)sulfonyl)-4′-(2-phenylpyrrolidin-1-yl)-[1,1′-biphenyl]-4-carboxamide]
- IC50 (RS4;11 cells; [2]): 1370 nM
- IC50 (Molt-4 cells): > 10000 nM
